The record followed here is article PMC6361898.

The target in assay [1] is T1, Human TERB2_(2–116) (human) (UniProt Q8NHR7).
T1 sequence: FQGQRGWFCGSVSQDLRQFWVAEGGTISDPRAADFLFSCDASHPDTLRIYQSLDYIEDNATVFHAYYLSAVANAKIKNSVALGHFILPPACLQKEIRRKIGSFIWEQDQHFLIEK
Briefly: crystal structure; TERB1_(587–659)–TERB2_(2–116) complex, co-expressed and co-purified; Hg-SAD, refined against a 3.3-Å native dataset; both purified.

In assay [2] the target is T2, Flag-tagged human TERB2 F192R (human) (UniProt Q8NHR7).
T2 sequence: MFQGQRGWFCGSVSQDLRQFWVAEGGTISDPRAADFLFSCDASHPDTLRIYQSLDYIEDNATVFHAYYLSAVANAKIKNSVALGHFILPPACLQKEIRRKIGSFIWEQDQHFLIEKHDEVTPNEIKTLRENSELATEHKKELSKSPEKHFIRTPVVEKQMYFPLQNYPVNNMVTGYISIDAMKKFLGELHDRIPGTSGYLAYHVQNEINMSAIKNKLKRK
Briefly: co-IP; transfected HEK293T cells; lysis in 25 mM Tris-HCl pH 7.4, 150 mM NaCl, 10% glycerol, 0.5% Triton X-100, 1 mM EDTA; anti-FLAG M2 Affinity Gel at 4 °C overnight; immunoblot. For orientation: In western blotting, separated proteins are transferred to a membrane and probed.

Assay [3] has as its target T3, Flag-tagged human TERB2 Y56E (human) (UniProt Q8NHR7).
T3 sequence: T2 sequence with Y56E, R192F
Described as above.

In assay [4] the target is T4, Flag-tagged human TERB2, wild type (human) (UniProt Q8NHR7).
T4 sequence: T2 sequence with R192F
The description is as above.

Assay [5] deals with T5, Flag-tagged mouse TERB2 F188R (mouse) (UniProt Q9D494).
T5 sequence: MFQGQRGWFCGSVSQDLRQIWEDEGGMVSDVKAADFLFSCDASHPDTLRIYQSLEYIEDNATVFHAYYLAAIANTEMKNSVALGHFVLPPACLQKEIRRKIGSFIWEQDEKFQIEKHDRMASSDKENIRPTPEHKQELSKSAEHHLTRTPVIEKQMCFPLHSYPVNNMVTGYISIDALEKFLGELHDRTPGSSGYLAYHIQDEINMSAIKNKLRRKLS
Described as above.

Assay [6] has as its target T6, Flag-tagged mouse TERB2 Y56E (mouse) (UniProt Q9D494).
T6 sequence: T5 sequence with Y56E, R188F
The assay is described as above.

For assay [7], the target named is T7, Flag-tagged mouse TERB2, wild type (mouse) (UniProt Q9D494).
T7 sequence: T5 sequence with R188F
The description is as above.

Assay [8] deals with T8, TERB1-VC (full-length human TERB1 fused to the Venus C-terminus) (human) (UniProt Q8NA31).
T8 sequence: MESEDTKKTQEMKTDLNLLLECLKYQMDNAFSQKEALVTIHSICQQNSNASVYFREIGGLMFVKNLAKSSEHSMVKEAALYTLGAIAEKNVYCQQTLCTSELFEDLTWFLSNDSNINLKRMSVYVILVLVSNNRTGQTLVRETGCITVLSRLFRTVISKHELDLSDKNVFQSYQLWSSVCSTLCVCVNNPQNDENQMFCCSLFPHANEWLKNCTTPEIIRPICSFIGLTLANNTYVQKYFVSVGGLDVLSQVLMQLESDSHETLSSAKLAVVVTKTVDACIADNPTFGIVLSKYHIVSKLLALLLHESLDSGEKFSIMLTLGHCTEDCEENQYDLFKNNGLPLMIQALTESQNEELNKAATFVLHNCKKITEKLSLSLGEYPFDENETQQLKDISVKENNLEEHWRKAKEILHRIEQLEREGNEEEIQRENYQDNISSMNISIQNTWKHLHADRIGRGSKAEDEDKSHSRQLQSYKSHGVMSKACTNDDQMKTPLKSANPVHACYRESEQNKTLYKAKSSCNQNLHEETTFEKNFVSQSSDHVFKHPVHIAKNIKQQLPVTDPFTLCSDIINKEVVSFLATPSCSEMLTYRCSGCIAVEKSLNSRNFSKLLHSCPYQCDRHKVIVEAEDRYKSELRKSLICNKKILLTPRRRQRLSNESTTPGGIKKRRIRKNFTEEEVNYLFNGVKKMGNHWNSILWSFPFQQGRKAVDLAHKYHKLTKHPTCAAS
Briefly: split reporter; Venus BiFC: -VN and -VC fusions co-expressed by lentiviral co-infection of HEK293T cells; Venus signal read by FACS after 36 h. In general terms: A flow cytometer gives signals particle by particle.

Assay [9] addresses T9, TERB2-VC (full-length human TERB2 fused to the Venus C-terminus) (human) (UniProt Q8NHR7).
T9 sequence: T2 sequence with R192F
The assay is described as above.

Where a chain is given by its changes, count along the chain named. Results are given in words; binding and its absence hold for the method and conditions named. For part of these data: Binding seen in cells or lysates may run through a third protein. Some entries that bind do so weakly or less than the wild type. For part of these data: Tags and fused reporters may be left off the sequences shown.

B1: Human TERB1_(587–659) (domain or fragment, UniProt Q8NA31 587-659)
chain: MLTYRCSGCIAVEKSLNSRNFSKLLHSCPYQCDRHKVIVEAEDRYKSELRKSLICNKKILLTPRRRQRLSNES
For the molecule B1, the binding result in assay [1] is on record as “binds”.

B2: Human TERB1 (293T cells) (protein, UniProt Q8NA31 1-727)
chain: T8 sequence
For the molecule B2, the binding entry in assay [2] is listed as “binds”; in [3], “no binding”; in [4], “binds”.

B3: Mouse TERB1 (293T cells) (protein, UniProt Q8C0V1 1-768)
chain: MESEKPKKTQEMKTDLKLLLECLKYHMGNPLSQKEVLITIHSVCKQNSDAGIYFREIGGLMFIINLAKSSEQSLVKEAALYTLGSIAEENVYCQQSLCTSELFQDLTGLLTNDDSNTNLKRMSVYVLLVLVSNNRNGQTLVREVGCIEVLSQMFRTVLSNYELNLSDNSVFQSYLLWSSVCSTLCVCVNNPQNDENQMLCCSLFPCVNEWLMNCMRPEVIRPICSFIGLTLANNTHAQNCFVSSGGLDVLCQVLVQLESDSHNTLSSAKLAVIVTKTMDACITDNSAAFTVVLSKYHIVSTLLALLLHESLDSREKFSIILAIGHCTEDCEKNQYELLKNNGLPLMIQALTEFKNEDLSKAATYVLHNCKKITGKLSLSLGQNSFGENEIELKDISEKETLREHWKAAKEILCRIKQFEKGGKEEKQQNRSGHYKDNTPSMKVNIQTNLKRLCADSTGGTRAEDKDINQSRELRSYKPSEIMSKACANENQLTTRKKNTNPVHPFCKEKGQSKIVHETTPSCAQNLDKEKTFDQKDSVSQSSDQVLKHLPHTVKNRKQVPETDPFTLCLDIIDREVGIQATDSCSRMLKYTCSGCIVARKLLNSRNFSKFLHSCAYQCVHHKVIMEAEDKYKNELRKTFICAKKILLTPCRRRQLCKESTASEELKIVHQKPDSKKLPGLEAQALNTSIPEAMERRSPVPGQSGLHKKRRIRKDFTKEEVNYLFHGVKTMGNHWNSILWSFPFQKGRRAVDLAHKYHRLIKGPSCAAL
In the case of B3, the binding result in assay [5] is recorded as “binds”; in assay [6], “no binding”; in [7], “binds”.

B4: TERB2 residues 1–116 fused to the Venus N-terminus (TERB2-VN truncation) (domain or fragment, UniProt Q8NHR7 1-116)
chain: MFQGQRGWFCGSVSQDLRQFWVAEGGTISDPRAADFLFSCDASHPDTLRIYQSLDYIEDNATVFHAYYLSAVANAKIKNSVALGHFILPPACLQKEIRRKIGSFIWEQDQHFLIEK
For B4, the binding entry in assay [8] is “binds”.

B5: Mouse MAJIN (293T cells) (protein, UniProt Q9D992 1-256)
chain: MSLKPFTYPFPETRFLHAGPNVYKFKIRYGNSIRGEEIEDKEVIVQELEDSIRAVLANMDSLQPFVTEHFIVFPYKSKWERVSHLKFKHGESILTPYPFVFTLYIEMKWFAEDLPSGKPADDIPLELVLAETEAEEATMRKWKRKLMEEPSSPSRQGPHRAKMETSSEASSNKKPLKESKRSTDEEAQQEYQDTPASNAIAVKEQDAALGHGLQGLVVPPLQHSSPPPPKEPGARGFLGFLSALFPFRYFFKKSGQ
B5: the binding entry in [5] is reported as “no binding”; in assay [6], “binds”; in assay [7], “binds”.

B6: TERB1 residues 587–636 fused to the Venus N-terminus (TERB1-VN fragment) (domain or fragment, UniProt Q8NA31 587-636)
chain: MLTYRCSGCIAVEKSLNSRNFSKLLHSCPYQCDRHKVIVEAEDRYKSELR
As for B6, the binding result in assay [9] was “binds”.
